About 11,000 (3.1%) of roughly 360,000 compounds were called active. The inconclusive results got no clear call from the source; some entries with a clear call stand among them for comparison. Calls follow the shape of the dose curve; as a rule, active = well fitted inhibition curve with a large enough effect; inconclusive = small, poorly fitted or top-dose-only effect; inactive = no such curve, though single readings can be large or run the other way. Potencies of inconclusive entries are left out as doubtful fits.
biological target: Schistosoma mansoni thioredoxin glutathione reductase (TGR) (UniProt Q962Y6); test: qHTS Assay for the Inhibitors of Schistosoma Mansoni Peroxiredoxins; conditions: purified TGR, DTNB reduction, TNB absorbance 405 nm; activity change, negative = inhibition: at 114 µM (top of the series) unless noted; also: nearly all actives have a fitted effect of over 60% in size
Method in brief: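 TGR 20 nM + NADPH 100 uM (dispensed conc.), cpd preinc 15 min RT; start with NADPH (500 uM addition) then DTNB (15 mM addition). Kinetic TNB absorbance, 405 nm filter. Four-parameter Hill fit across titration.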
% is scaled to controls: 0 for no effect and ±100 for the full control effect; potency is read from the fitted curve at half-maximal effect; tags tell the direction and shape of the fitted curve.

With `CN(C)S(=O)(=O)c1ccc(NC(=O)CSc2nc3ccccc3n2-c2ccccc2)cc1` as the compound, how does the Potency read?
Its Potency is inconclusive [inhibitor, single point].

`Cc1ccc(NC(=O)CCl)cc1S(=O)(=O)N1CCCCCC1` was tested. Which Potency did it give?
Its Potency is active: 7.94 µM.

How did the Potency turn out when `COc1ccc(-c2c([C@H]3[C@@H]4C=CCC[C@@]4(C)C(=O)N3Cc3ccccc3)ccc3ccccc23)cc1OC` was run?
Its Potency is “inactive”.

Which Potency does the source give for `CCOc1cc(CNCc2cc(OC)cc(OC)c2)ccc1OC` here?
Its Potency is inconclusive [inhibitor, partial curve].

Which Potency does the source give for `Cc1cc(C(=O)Nc2ccc(F)cc2C)cs1` here?
The Potency was inconclusive [inhibitor, full curve].

For `CCCn1nc(NC(=O)c2ccco2)c2cc3ccc(C)cc3nc21`, which Potency is on record?
The Potency was inconclusive [inhibitor, partial curve].

How did the Potency turn out when `O=C(Nc1ccc(Br)cn1)c1ccc([N+](=O)[O-])o1` was run?
Its Potency is inconclusive [inhibitor, partial curve].

`CS(=O)(=O)c1ccc2nc(NC(=O)c3ccc(NS(=O)(=O)c4ccc(F)c(F)c4)cc3)sc2c1` was tested. Which Potency did it give?
The Potency was “inactive”.

With `CC(C)/C=C(/C(=O)c1ccc(Cl)cc1Cl)n1cncn1` as the compound, how does the Potency read?
Its Potency is active: 35.5 µM.

`COc1ccccc1N1CCN(C(=O)c2cccc(S(=O)(=O)NCc3cccnc3)c2)CC1` was tested. Which Potency did it give?
The Potency was inconclusive [inhibitor, partial curve].

`Cc1c(NC(=S)NC(=O)c2cc3ccccc3o2)cccc1C(=O)O` was tested. Which Potency did it give?
Its Potency is inconclusive [inhibitor, full curve, poor fit].

For `Cc1ccc(/C([O-])=C(/C(=S)NCc2ccco2)[n+]2ccccc2)cc1`, which Potency is on record?
The Potency was inconclusive [inhibitor, partial curve, poor fit].

With `Clc1cccc(Nc2nc(N3CCOCC3)nc(N3CCOCC3)n2)c1` as the compound, how does the Potency read?
The Potency was “inactive”.

Which Potency does the source give for `O=C1CCNCCN1[C@H](CO)c1ccccc1` here?
The Potency was inconclusive [inhibitor, partial curve].

Which Potency does the source give for `O=C(O)c1cccc(NC(=S)NC(=O)c2ccc3ccccc3c2)c1` here?
Its Potency is active: 25.1 µM.

For `COc1ccc(S(=O)(=O)N2CCOCC2)cc1NC(=O)/C=C/c1ccccc1`, which Potency is on record?
The Potency was inconclusive [inhibitor, single point].

For `CCn1c(SCC(=O)Nc2ccc(Br)cn2)nnc1C1CC1`, which Potency is on record?
The Potency was inconclusive [inhibitor, partial curve].

`CCCCN(CCCC)CC(O)Cn1cc(/C=C/C(=O)c2ccccc2)c2ccccc21` (stereo not drawn) was tested. Which Potency did it give?
Its Potency is “inactive”.

`COc1ccc(C2/C(=C(/O)c3ccc(C)cc3)C(=O)C(=O)N2CCCN2CCOCC2)cc1` (stereo not drawn) was tested. Which Potency did it give?
The Potency was active: 44.7 µM.

For `CCOc1ccc(C(=O)NC(=S)Nc2cccnc2)cc1[N+](=O)[O-]`, which Potency is on record?
The Potency was inconclusive [inhibitor, partial curve, poor fit].

For `N#CC1=CN(Cc2ccccc2)C=C(/C=N/Nc2ccccc2)C1`, which Potency is on record?
Its Potency is inconclusive [inhibitor, partial curve].

Which Potency does the source give for `Cc1occc1C(=O)Nc1sc2c(c1C(N)=O)CCCCC2` here?
Its Potency is inconclusive [inhibitor, partial curve].

For `O=S(=O)(c1ccc(N=C2NN=C(c3cc(F)ccc3F)CS2)cc1)N1CCOCC1`, which Potency is on record?
Its Potency is “inactive”.

How did the Potency turn out when `O=C(N/N=C/c1coc2ccc(Cl)cc2c1=O)c1cc(O)cc(O)c1` was run?
Its Potency is inconclusive [inhibitor, partial curve].

With `COc1ccc(C(=O)NC(=S)Nc2ccc(Cl)c(C(=O)O)c2)cc1` as the compound, how does the Potency read?
The Potency was active: 39.8 µM.

For `Cc1nc2ccccc2n1CCc1nc2c3ccccc3nc(SCC(=O)NCc3ccco3)n2n1`, which Potency is on record?
Its Potency is inconclusive [inhibitor, partial curve].

With `Cc1ccc2[nH]c(=O)c(CN(Cc3cccnc3)C(=S)NCCCN(C)C)cc2c1` as the compound, how does the Potency read?
Its Potency is inconclusive [inhibitor, partial curve].

Which Potency does the source give for `COc1cc2c(cc1NC(=O)c1cccnc1)CCCC2` here?
Its Potency is inconclusive [inhibitor, partial curve].

For `O=C(COC(=O)c1nc(Cl)c(Cl)c(Cl)c1Cl)c1ccc[nH]1`, which Potency is on record?
Its Potency is active: 20 µM.

With `Cc1ccc(N(CC(=O)NC(C)(C)C)C(=O)CS(=O)CC(=O)Nc2ccc(F)cc2)cc1` (stereo not drawn) as the compound, how does the Potency read?
The Potency was inconclusive [inhibitor, partial curve].

Which Potency does the source give for `CCCn1nc([N+](=O)[O-])c(C(C#N)c2nc3ccccc3o2)c(Cl)c1=O` (stereo not drawn) here?
Its Potency is active: 2.24 µM.

How did the Potency turn out when `Cc1cccc(-n2c(=O)c3c4c(sc3n3cnnc23)CCCC4)c1` was run?
The Potency was inconclusive [inhibitor, single point].

With `CC(=O)C1=NOC2C(=O)N(c3ccc(Cl)cc3)C(=O)C12` (stereo not drawn) as the compound, how does the Potency read?
The Potency was active: 3.55 µM.

For `CSc1ncccc1C(=O)NCc1ccc(C)cc1`, which Potency is on record?
Its Potency is “inactive”.

For `NNc1nnc(-c2ccccc2)c(-c2ccccc2)n1`, which Potency is on record?
Its Potency is inconclusive [inhibitor, full curve, poor fit].

For `CCN(CC)CCCN1C(=O)C(=O)/C(=C(/O)c2ccc(OC)c(Cl)c2)C1c1ccco1` (stereo not drawn), which Potency is on record?
The Potency was inconclusive [inhibitor, partial curve].

Which Potency does the source give for `O=C1C2C(C(=O)N1/N=C/c1cc(Br)cc([N+](=O)[O-])c1O)C1C=CC2C12CC2` (stereo not drawn) here?
Its Potency is “inactive”.

`CCOC(=O)c1c(NC(C)=O)sc2c1CCC(C=O)=C2Sc1ccccc1` was tested. Which Potency did it give?
The Potency was inconclusive [inhibitor, full curve].

For `O=C(NCc1ccccc1Cl)C(=O)NCC(c1cccs1)S(=O)(=O)c1cccs1` (stereo not drawn), which Potency is on record?
The Potency was inconclusive [inhibitor, partial curve, poor fit].

`CCCCOc1ccc(C(=O)CCN2CCOCC2)cc1` was tested. Which Potency did it give?
Its Potency is active: 2 µM.

For `N#CC1=C(SCC(N)=O)NC2=C(C(=O)c3ccccc32)C1c1ccc(Cl)cc1` (stereo not drawn), which Potency is on record?
Its Potency is inconclusive [inhibitor, partial curve].

How did the Potency turn out when `COc1ccc(Nc2nnc(SCC(=O)N3CCCC3)s2)cc1` was run?
Its Potency is “inactive”.

`COc1cc(OC)cc(C(=O)Nc2ccc3nc(N4CCCCC4)cc(C)c3c2)c1` was tested. Which Potency did it give?
Its Potency is “inactive”.

For `O=C(CCCOc1ccc(Cl)cc1)NCCc1ccccc1`, which Potency is on record?
Its Potency is “inactive”.

For `CN1CCN(S(=O)(=O)c2ccc([N+](=O)[O-])cc2)CC1`, which Potency is on record?
The Potency was “inactive”.

For `N#Cc1c(N)oc(-c2ccco2)c1-c1ccco1`, which Potency is on record?
Its Potency is active: 35.5 µM.

How did the Potency turn out when `O=c1[nH]cnc(O)c1C(c1ccc(Br)cc1)c1c(O)nc[nH]c1=O` was run?
The Potency was inconclusive [inhibitor, full curve, poor fit].

Which Potency does the source give for `COc1ccc(OC)c(N2C(=O)/C(=C/c3ccco3)C(=O)NC2=S)c1` here?
Its Potency is active: 31.6 µM.

How did the Potency turn out when `O=C(CSc1cccc[n+]1[O-])c1ccccc1Br` was run?
Its Potency is “inactive”.

`O=C1CC(/C=C/c2ccccn2)=Nc2ccccc2N1` was tested. Which Potency did it give?
Its Potency is inconclusive [inhibitor, partial curve].

With `Cc1ccc(SC(C)C(=O)NC2CC2)cc1` (stereo not drawn) as the compound, how does the Potency read?
Its Potency is “inactive”.

`COc1cccc(CNC(=O)COC(=O)C2CC3CCCC(C2)C3=O)c1` (stereo not drawn) was tested. Which Potency did it give?
Its Potency is “inactive”.

`O=S(=O)(c1ccccc1)C(/C=N\O)/C=C/c1ccccc1` (stereo not drawn) was tested. Which Potency did it give?
Its Potency is inconclusive [inhibitor, full curve, poor fit].

`Cc1nnc(SCC(=O)c2ccc(Cl)cc2)s1` was tested. Which Potency did it give?
Its Potency is “inactive”.

For `c1ccc(Cn2ncc3c(NCc4ccco4)ncnc32)cc1`, which Potency is on record?
Its Potency is inconclusive [inhibitor, partial curve].

`Cc1ccc(C(O)c2cccnc2)o1` (stereo not drawn) was tested. Which Potency did it give?
Its Potency is inconclusive [inhibitor, partial curve].

How did the Potency turn out when `Cc1ccc(Cl)cc1NC(=O)COC(=O)CC(C)(C)C` was run?
Its Potency is inconclusive [inhibitor, partial curve].

`Cc1cc(C)c2sc(N(Cc3cccnc3)C(=O)CCS(=O)(=O)c3ccccc3)nc2c1` was tested. Which Potency did it give?
The Potency was inconclusive [inhibitor, partial curve].

`O=C(Nc1ccc(F)cc1F)c1ccc2nc(N3CCOCC3)sc2c1` was tested. Which Potency did it give?
Its Potency is “inactive”.

How did the Potency turn out when `Cc1ccc(C)c(S(=O)(=O)c2cn(Cc3ccccc3)c3cc(F)c(F)cc3c2=O)c1` was run?
Its Potency is “inactive”.

How did the Potency turn out when `N=c1sccn1CC(=O)Nc1ccc(S(=O)(=O)N2CCOCC2)cc1` was run?
Its Potency is “inactive”.

How did the Potency turn out when `Cc1ccc(CNC(=O)c2ccc(-n3c(C)cc4c3CCCC4)cc2)cc1` was run?
Its Potency is inconclusive [inhibitor, full curve, poor fit].

For `CCOc1ccc(C2/C(=C(\O)c3ccc4c(c3)OCCO4)C(=O)C(=O)N2CCCN2CCOCC2)cc1` (stereo not drawn), which Potency is on record?
Its Potency is inconclusive [inhibitor, partial curve].

For `Cn1cc(CN2CCN(c3ccc(Cl)cn3)CC2)c(-c2ccccc2F)n1`, which Potency is on record?
Its Potency is inconclusive [inhibitor, full curve].

How did the Potency turn out when `CC(=O)Nc1ccc(S(=O)(=O)NCC(=O)N2CCN(S(=O)(=O)c3cccs3)CC2)cc1` was run?
Its Potency is “inactive”.

How did the Potency turn out when `CCCCN1CNC(=S)N(Cc2ccccc2)C1` was run?
The Potency was “inactive”.

For `COC(=O)c1cccc(-n2c(=O)n(Cc3ccccc3)c(=O)c3[nH]cnc32)c1C`, which Potency is on record?
The Potency was “inactive”.

How did the Potency turn out when `CC(C)[C@H](N)C(=O)OCCOCn1cnc2c(=O)[nH]c(N)nc21` was run?
The Potency was inconclusive [inhibitor, full curve, poor fit].

`NC1=C(Br)C(=O)c2ccccc2C1=O` was tested. Which Potency did it give?
Its Potency is inconclusive [inhibitor, full curve].

With `COCCCN1C(=O)c2ccc(C(=O)Nc3ccccc3OC)cc2C1=O` as the compound, how does the Potency read?
The Potency was “inactive”.

`O=C(CSc1n[nH]c(-c2ccco2)n1)N1c2ccccc2Sc2ccccc21` was tested. Which Potency did it give?
The Potency was active: 35.5 µM.

How did the Potency turn out when `Cc1ccc(N=Cc2c(O)[nH]c3ccccc23)c([N+](=O)[O-])c1` was run?
Its Potency is inconclusive [inhibitor, single point].

`N#Cc1ccc2c(c1)C[C@]1(CCCCN3C(=O)c4ccccc4C3=O)Oc3c(c(=O)oc4ccccc34)C2O1` was tested. Which activity change, negative = inhibition did it give?
The activity change, negative = inhibition was inactive: 1.74% [at 22.9 µM].

From PubChem BioAssay AID485364 (National Center for Advancing Translational Sciences (NCATS), 2010)
